Some of the results follow. Values were computed here from the reads of four pooled replicates and scatter widely.
What follows are sequences tested against T1, Pho4 (S. cerevisiae) (UniProt P07270) (assay: relative binding free energy (BET-seq); higher = weaker binding). Conditions: reference: library average.
T1 sequence: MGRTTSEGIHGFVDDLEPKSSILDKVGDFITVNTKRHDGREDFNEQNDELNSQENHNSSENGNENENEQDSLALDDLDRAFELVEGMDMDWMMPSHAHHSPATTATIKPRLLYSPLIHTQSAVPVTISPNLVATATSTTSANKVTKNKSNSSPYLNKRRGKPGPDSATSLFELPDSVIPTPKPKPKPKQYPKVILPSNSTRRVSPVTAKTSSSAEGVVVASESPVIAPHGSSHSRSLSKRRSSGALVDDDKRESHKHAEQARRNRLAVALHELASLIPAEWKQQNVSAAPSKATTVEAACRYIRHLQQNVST

Sequence	relative binding free energy [kJ/mol]
TGCGGCACGTGGACGG	0.167
AAAGGCACGTGTGCGT	-0.418
GCGGTCACGTGGGAAT	0.377
GGGCTCACGTGGTGGA	1.42
TCATTCACGTGTGATT	1.13
AGGATCACGTGGCAGG	0.837
TTGCGCACGTGATGGT	-0.251
TGAGACACGTGCGGTT	0.586
TCAAGCACGTGGCTGG	-0.293
AGAGGCACGTGGGCGT	-0.753
TAGGTCACGTGAAAAT	1.09
TCGGTCACGTGTACGT	0.418
GTTTGCACGTGATGAA	0.628
GGCGGCACGTGTGGCA	-0.293
CTGTCCACGTGATGGG	0.586
TTGTACACGTGTATTT	0.711
GGTGGCACGTGGAGTC	-0.335
GTGGACACGTGCGGAT	0.46
GTAGGCACGTGGGTGG	-0.879
TTTCGCACGTGAATTG	1
TTTTGCACGTGCTAGC	0.293
AAAGTCACGTGTGGTG	0.795
TTGGTCACGTGAGAGC	1.42
TGGGTCACGTGGACTG	0.586
CGGGACACGTGGGATT	0.0837
CTGTGCACGTGAGTAG	0.795

Sequence	relative binding free energy [kJ/mol]
GAGTGCACGTGTTAGA	0.0837
TTGTACACGTGGTGGA	-0.0418
TATTGCACGTGCAGGA	-0.586
TGTCGCACGTGGTGCG	-0.753
AATGTCACGTGTTTTA	0.293
AGTAACACGTGGTGGA	-0.0418
TACTGCACGTGCGTGG	-0.628
AATGGCACGTGAGTGT	0.586
TGGCACACGTGAGTTA	1
GTCGCCACGTGGGGTG	-1.17
GTACGCACGTGTTGGG	-0.586
AGTGTCACGTGTGCTA	0
ATGCGCACGTGGCGGT	-1.26
TAAGACACGTGGATGG	0.209
TGTTACACGTGGGGCA	-0.0837
GTTTTCACGTGATACG	1.38
TGAGCCACGTGGTTAG	-0.795
TATGCCACGTGCAGGG	-0.544
GGCCTCACGTGTTGGA	1.84
ATATACACGTGCGTAT	0
AGTTTCACGTGTCTTA	0.795
GGGTACACGTGACTGT	0.502
TGGGGCACGTGAAGGA	0.293
GAGGCCACGTGGGAGG	-0.669
GCTCTCACGTGGTTGG	1.17
GTGGACACGTGACTTG	0.962

Sequence	relative binding free energy [kJ/mol]
ATAGACACGTGATTGG	0.586
GGATACACGTGAGTTT	1.8
TCTGGCACGTGTGAAA	0.0837
AATGACACGTGGGGTC	-0.335
ATTTACACGTGAGGGC	0.753
TGGGGCACGTGGAGCC	-0.251
TATCTCACGTGGGGGC	0.837
TCTCGCACGTGTAGGT	-0.335
GTGTACACGTGAATGG	1.17
TCGTTCACGTGTATGA	1.46
GGCTTCACGTGGGATT	0.795
AGATTCACGTGTTTGA	0.879
TTTGTCACGTGAGAAA	1.09
GGATACACGTGTATTT	0.0837
ATGGGCACGTGATAGA	-0.0837
AGCGTCACGTGGAGTT	0.669
GTTGGCACGTGGATAT	-0.167
GCGAGCACGTGGTAGG	-0.502
AATTGCACGTGGTTTT	-0.167
TTTCACACGTGCTGTG	0.126
GATGTCACGTGTGGAG	0.377
GTTATCACGTGTGGTT	1.05
GGCAGCACGTGTGATG	0.753
GTGTCCACGTGGGTTT	0.46
ATTCGCACGTGAGGGT	-0.293
ATGCGCACGTGGGCTT	-1.09

Sequence	relative binding free energy [kJ/mol]
CGTATCACGTGGGGAT	0.377
TTAGACACGTGTGGTT	0.669
TCGTGCACGTGTTGTC	-0.126
GATTTCACGTGGGTTA	1
GGCGTCACGTGTGTAG	-0.0418
AGTTCCACGTGAGGCG	1.67
AGAGCCACGTGGTAGG	-1.05
GCGTTCACGTGGGAGA	1.34
TGTGACACGTGTAGTA	-0.0837
AACGGCACGTGGAGTT	0.0837
TAGTACACGTGCTTTA	0
GAGGTCACGTGTCTTT	0.669
TTAGTCACGTGTCGAT	0.377
CTTTTCACGTGGGCAG	1.13
GGCAGCACGTGAGAGG	1
AATGTCACGTGAGGCT	0.795
AGGACCACGTGTAGTG	0.251
GAGGTCACGTGTAAGG	0.962
TTAAGCACGTGAGGGA	0.879
AAGGACACGTGTGTAT	0.335
TAATACACGTGGGTAG	-0.753
TTGATCACGTGTCATG	0.418
GTGTTCACGTGGCAGA	1.05
GGATTCACGTGGGAAA	0.837
GTTATCACGTGGAGGG	0.502
TGTGTCACGTGGCGGA	-0.126

Sequence	relative binding free energy [kJ/mol]
TCATGCACGTGGGATT	-0.879
AGTGGCACGTGTAATA	-0.209
CGTTGCACGTGAGGGG	1.13
CGGAGCACGTGAGTTG	0.502
TGGGACACGTGGAGGT	0.418
TGATCCACGTGTTGTG	0.293
CCATTCACGTGTGGTA	1.26
TAGTGCACGTGAGATG	0.795
GTAGGCACGTGGGTCG	-0.502
ATATTCACGTGATGCT	0.92
TCATTCACGTGAATGT	1.92
TCGGACACGTGTATAG	0.795
TGTGACACGTGGCTAG	0.0418
TTTATCACGTGGAGTA	0.502
GCCTCCACGTGGGGTG	-0.251
GTTCTCACGTGTGGCG	1.34
TGGTGCACGTGCAGTA	-0.628
GGCTGCACGTGGTTGG	-0.0837
TATTTCACGTGTATAT	0.962
TGAAGCACGTGTTTTG	-0.209
GTCGTCACGTGAGCGG	1.34
TTATTCACGTGGCGCG	0.711
AGTTGCACGTGGACTT	-0.126
GTAGCCACGTGGGGGC	-0.544
TGTGTCACGTGAGTAT	0.795
GTGTTCACGTGTGAGT	1.63

Sequence	relative binding free energy [kJ/mol]
AGTGGCACGTGTTGGA	-0.377
GATGTCACGTGCTGTT	0.46
TGGTTCACGTGTTCAA	1
TCAGTCACGTGAGTAT	1.55
ATTCGCACGTGTTGGT	-0.335
TCGGACACGTGAAGGT	0.795
GTAAACACGTGTTCTT	0.544
ATTAGCACGTGATTTT	0.377
AAGCTCACGTGGTTGA	1.05
GAGGTCACGTGTTCTG	0.879
TCGAACACGTGGGAGG	-0.335
CGTTTCACGTGGAGAT	1.72
TATGTCACGTGTATAC	-0.126
GGAAGCACGTGTGTCT	0.126
GAGATCACGTGTACGG	1.13
ATTGGCACGTGCGCGT	-1.05
CGGTTCACGTGCAGGA	0.92
GGTTTCACGTGGCGGA	1.55
TGTACCACGTGGTGAG	-0.251
CGAGTCACGTGGGGCG	0.251
TTAATCACGTGAGAGA	1.34
GAGCTCACGTGGTTAG	1.17
GGGCACACGTGGGGAA	0.628
ATCTTCACGTGGTGCG	0.879
ATGGGCACGTGTGAAG	-0.335
AATGTCACGTGGTGAG	0.0837

Sequence	relative binding free energy [kJ/mol]
GTGTACACGTGAAAAG	1.67
TAAATCACGTGGTTCG	0.251
TTTATCACGTGGCAGG	0.795
TCTTGCACGTGTCTTT	-0.209
GATAACACGTGAGTTA	1.55
GGGGTCACGTGGACTA	0.46
GAGGCCACGTGGTGTT	-0.669
GGATACACGTGTAATG	0.753
GTGGGCACGTGAGTAG	0.586
GGTTCCACGTGTGGAG	0.711
ACGGACACGTGTTTTT	1.13
CTGTACACGTGGAATG	0.879
ATTGTCACGTGCCAGT	0.377
ATCTTCACGTGGTTGA	0.711
AAGTACACGTGGGGTA	-0.628
TATGACACGTGAGTTT	1
TTAGGCACGTGGCTGG	-0.628
TGGTGCACGTGTAAGT	0.46
AGTGACACGTGCGCGG	-0.711
TTTATCACGTGCGATG	0.377
AATGCCACGTGGGTTA	-0.377
AGATTCACGTGTGAAG	0.962
TATTACACGTGGTATA	-0.167
AGGTCCACGTGTTTGA	-0.0837
ATAATCACGTGGTGAT	-0.335
TCGTTCACGTGTAAGT	1.17

Sequence	relative binding free energy [kJ/mol]
AATCGCACGTGGGAGG	-0.879
AGGAGCACGTGGGTAC	-0.962
CGGTGCACGTGTTTCG	0.209
ACGGGCACGTGGATGG	-0.669
AGCGTCACGTGTAGGT	0.167
AGCTTCACGTGGTTTG	0.962
TTTCTCACGTGGTATA	1.26
TATAGCACGTGGGTGC	-0.962
CTGTTCACGTGTTCGG	1.21
AATAGCACGTGATGGA	0.628
AGGGGCACGTGTGACT	-0.502
TTGGCCACGTGTGTCT	-0.167
GTGTTCACGTGGCTGT	1.59
GGAAGCACGTGCGTTG	-0.0418
TTACGCACGTGCTGTT	-0.962
TGGGCCACGTGGAGAT	-0.502
GGGTACACGTGAAAAG	1.05
CATTTCACGTGTTAGT	0.962
ATAGGCACGTGTAGGG	-0.126
AGAGGCACGTGTATGC	-0.335
TAGGTCACGTGCTATT	0.251
AGTAGCACGTGTCGGG	-0.126
TGGAGCACGTGAGATA	0.628
TTAAACACGTGTTGAA	0.209
TTCGTCACGTGTTGAT	0.126
GTTGACACGTGCTGGA	0

Sequence	relative binding free energy [kJ/mol]
TAAAGCACGTGGATTG	-0.251
CGAGTCACGTGCTGGT	0.586
ATTTCCACGTGTTATG	0.293
GGGTACACGTGATATT	0.962
GTATTCACGTGCGGTA	1.05
ACCGGCACGTGTAGGG	-0.377
CGAAGCACGTGTAGTG	-0.251
CGTGGCACGTGGGTAT	-0.753
GGGTTCACGTGTTTTA	1.55
GGGAGCACGTGACTGT	0.586
TAAGGCACGTGATGAA	-0.0418
GAGGTCACGTGGGAGG	0.293
GCGGTCACGTGGTAGT	0.293
TGGTGCACGTGGAGGC	0.167
TATGTCACGTGGAGTT	0.251
TTCGTCACGTGTGTAA	0.669
GTGACCACGTGTAGTG	-0.209
CACAGCACGTGGGGGG	-1.3
AGTAGCACGTGATGTT	0.126
CGGATCACGTGATAGT	1.34
GAATGCACGTGGCAGG	-0.167
CGATACACGTGCGGGT	0.628
